The inconclusive results got no clear call from the source; some entries with a clear call stand among them for comparison. Potencies of inconclusive entries are left out as doubtful fits. Activity calls are given as the source filed them. Calls come from the whole dose curve; as a rule, active = well fitted inhibition curve with a large enough effect; inconclusive = small, poorly fitted or top-dose-only effect; inactive = no such curve, though single readings can be large or run the other way.
These compounds were tested against N-terminal Xaa-Pro-Lys N-methyltransferase 1 (Homo sapiens) (UniProt Q9BV86) (assay: qHTS Assay for Inhibitors of N-terminal methyltransferase 1 (NTMT1): LOPAC validation of the NTMT1 SAHH-coupled ThioGlo3 Assay (AID 1347143;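 note: SAH from peptide methylation measured as thiol fluorescence via SAHH coupling and ThioGlo3; nearly all actives have a fitted effect of over 70% in size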)). Conditions: recombinant NTMT1, SAHH-coupled ThioGlo3 fluorescence; series mostly up to 114 µM; activity change, negative = inhibition: at the top concentration.
UniProt Q9BV86, sequence (Q9BV86 whole entry, looked up): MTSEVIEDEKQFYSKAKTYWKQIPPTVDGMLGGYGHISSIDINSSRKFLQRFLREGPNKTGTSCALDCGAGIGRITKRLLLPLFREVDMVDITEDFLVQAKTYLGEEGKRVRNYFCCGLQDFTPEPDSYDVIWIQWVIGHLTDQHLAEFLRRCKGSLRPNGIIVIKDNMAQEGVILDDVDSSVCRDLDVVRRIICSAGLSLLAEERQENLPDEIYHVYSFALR
From the text: Assay Submitter (PI): Rong Huang Ph.D, Purdue University, West Lafayette, IN 47907 The N-terminal methytransferase 1 is the first methyltransferase that methylates protein alpha-N-amines and plays an important role in regulating cell mitosis, chromatin interactions and DNA repair. It is observed to be over-expressed in various cancer patient tissues like malignant melanoma and colorectal cancer tissues. Knockdown of NTMT1 in cancer cells causes cell mitotic defects and enhances sensitivity to DNA damaging chemotherapeutics. […] These critical cellular processes in which NTMT1 is implicated, coupled with emerging links to cellular dysfunction, strengthen the inference that NTMT1 is a compelling novel anticancer target. Progress have been made in understanding the molecular properties of NTMT1 and the biological consequences of protein alpha-N-terminal methylation, but there are no specific small molecule probes available for NTMT1 to fully characterize its MTase activity. To address this unmet need, a panel of assay is created and established to enable quantitative high-throughput screening (qHTS) for novel, potent, and selective small molecule NTMT1 inhibitors. Two orthogonal qHTS that use different reagents (ThioGlo vs. MTaseGlo) are developed for primary robotic screening against the NCATS chemical library of more than 400,000 small molecules. Identified inhibitors are reacquired, validated, and further characterized. […] A pilot screen against the LOPAC library of 1280 compounds is carried out to assess performance of the optimized qHTS in 1536-well plate format. Early Translation Branch (ETB) National Center for Advancing Translational Sciences (NCATS) National Institute of Health (NIH)
Materials: NTMT1 enzyme, substrate SPKRIA, control peptide RCC1-6 is provided by the Huang laboratory. ThioGlo3 Assay: In brief, 125nM NTMT1 enzyme was dispensed into a 1536-well assay plate with Aurora Discovery BioRAPTR Flying Reagent Dispenser (FRD, Beckton-Dickenson). Compounds (at various concentration) or 1uM RCC1-6 (SPKRIA) control were transferred to the assay plate using the Kalypsys 1536-pintool apparatus. After 1 min of room temperature incubation, 1uL of substrate (100uM SAM, 10uM SAHH, 15uM ThioGlo3) was added to the wells bringing the final assay volume to 4uL. Initial (background) fluorescence readout (EX: 340nm, EM: 450nm) was then detected using the PerkinElmer ViewLux microplate imager and a final fluorescence readout was taken after 30 min of room temperature incubation. The data was normalized to the background fluorescence.
With CN1CCC(=C2c3ccccc3CC(=O)c3sccc32)CC1 the Potency was inconclusive [inhibitor, partial curve].
CCCNCC(O)COc1ccccc1C(=O)CCc1ccccc1 (configuration not stated) was tested, and the Potency was inconclusive [inhibitor, partial curve].
In the case of NC(=O)OCC(COC(N)=O)c1ccccc1, the “activity change, negative = inhibition” value is reported as inactive: -3.2%.
With NCCc1cnc[nH]1 the “activity change, negative = inhibition” value was inactive: -21%.
O=C(CCc1ccc(O)cc1)c1c(O)cc(O)cc1O was tested, and the Potency was inconclusive [inhibitor, partial curve].
With CC(=O)OCC(CCn1cnc2cnc(N)nc21)COC(C)=O the Potency was active: 56.2 µM.
For CNCCCC12CCC(c3ccccc31)c1ccccc12, the Potency was inconclusive [inhibitor, partial curve].
In the case of Nc1nc2c(ncn2COCCO)c(=O)[nH]1, the “activity change, negative = inhibition” value is reported as inactive: -12.5%.
With Nc1nnc(-c2cccc(Cl)c2Cl)c(N)n1 the “activity change, negative = inhibition” value was inactive: -12.2%.
For OCCN(CCO)c1nc(N2CCCCC2)c2nc(N(CCO)CCO)nc(N3CCCCC3)c2n1, the Potency was active: 79.4 µM.
CC(CCc1ccc(O)cc1)NCCc1ccc(O)c(O)c1 (configuration not stated) was tested, and the Potency was inconclusive [inhibitor, partial curve].
For Cc1cn([C@H]2C=C[C@@H](CO)O2)c(=O)[nH]c1=O, the “activity change, negative = inhibition” value was inactive: -6.88%.
For c1cnc2cc3c(cc2n1)C1CNCC3C1, the Potency was inconclusive [inhibitor, partial curve].
COc1ccccc1N1CCN(CC(O)COc2cccc3ccccc23)CC1 (configuration not stated) was tested, and the Potency was inconclusive [inhibitor, partial curve].
In the case of CN1C(C(=O)Nc2ccccn2)=C(O)c2ccccc2S1(=O)=O, the Potency is reported as inconclusive [inhibitor, partial curve].
O=C1c2ccccc2-c2n[nH]c3cccc1c23 was tested, and the Potency was inconclusive [inhibitor, full curve].
In the case of O=C1c2c(O)cc(O)cc2OC(c2ccc(O)c(O)c2)C1O (configuration not stated), the Potency is reported as active: 25.1 µM.
C[C@H]1c2cccc(O)c2C(O)=C2C(=O)[C@]3(O)C(O)=C(C(N)=O)C(=O)[C@@H](N(C)C)[C@@H]3[C@@H](O)[C@@H]21 was tested, and the Potency was inconclusive [inhibitor, partial curve].
For O=C(C1CCCCC1)N1CC(=O)N2CCc3ccccc3C2C1 (configuration not stated), the “activity change, negative = inhibition” value was inactive: -9.6%.
In the case of COc1ccccc1OCCNCC(O)COc1cccc2[nH]c3ccccc3c12 (configuration not stated), the Potency is reported as inconclusive [inhibitor, partial curve].
With Clc1ccc(C(c2ccccc2Cl)C(Cl)Cl)cc1 (configuration not stated) the Potency was inconclusive [inhibitor, partial curve, poor fit].
In the case of NCCCCCC(=O)O, the “activity change, negative = inhibition” value is reported as inactive: 10.2%.

From PubChem BioAssay (NCATS)
% is set by controls: 0 for no effect and ±100 for the full control effect; potency is the fitted concentration of half-maximal effect; tags give direction and shape of the fitted curve.
